Assay results: PubChem BioAssay AID504339 (National Center for Advancing Translational Sciences (NCATS), 2011)
Out of some 390,000 compounds screened, about 17,000 (4.4%) were called active. The inconclusive results got no clear call from the source; some entries with a clear call stand among them for comparison. Calls come from the whole dose curve; as a rule, active = well fitted inhibition curve with a large enough effect; inconclusive = small, poorly fitted or top-dose-only effect; inactive = no such curve, though single readings can be large or run the other way. Potencies beside an inconclusive call are fits to weak or partial responses and may not hold up.

These compounds were tested against Lysine-specific demethylase 4A (Homo sapiens) (UniProt O75164) (assay: qHTS Assay for Inhibitors of JMJD2A-Tudor Domain). Conditions: AlphaScreen JMJD2A-Tudor / H3K4me3 peptide binding; activity change, negative = inhibition: at 114 µM (top of the series).
Chain of UniProt O75164 (O75164 whole entry, looked up, the tested form may be a part): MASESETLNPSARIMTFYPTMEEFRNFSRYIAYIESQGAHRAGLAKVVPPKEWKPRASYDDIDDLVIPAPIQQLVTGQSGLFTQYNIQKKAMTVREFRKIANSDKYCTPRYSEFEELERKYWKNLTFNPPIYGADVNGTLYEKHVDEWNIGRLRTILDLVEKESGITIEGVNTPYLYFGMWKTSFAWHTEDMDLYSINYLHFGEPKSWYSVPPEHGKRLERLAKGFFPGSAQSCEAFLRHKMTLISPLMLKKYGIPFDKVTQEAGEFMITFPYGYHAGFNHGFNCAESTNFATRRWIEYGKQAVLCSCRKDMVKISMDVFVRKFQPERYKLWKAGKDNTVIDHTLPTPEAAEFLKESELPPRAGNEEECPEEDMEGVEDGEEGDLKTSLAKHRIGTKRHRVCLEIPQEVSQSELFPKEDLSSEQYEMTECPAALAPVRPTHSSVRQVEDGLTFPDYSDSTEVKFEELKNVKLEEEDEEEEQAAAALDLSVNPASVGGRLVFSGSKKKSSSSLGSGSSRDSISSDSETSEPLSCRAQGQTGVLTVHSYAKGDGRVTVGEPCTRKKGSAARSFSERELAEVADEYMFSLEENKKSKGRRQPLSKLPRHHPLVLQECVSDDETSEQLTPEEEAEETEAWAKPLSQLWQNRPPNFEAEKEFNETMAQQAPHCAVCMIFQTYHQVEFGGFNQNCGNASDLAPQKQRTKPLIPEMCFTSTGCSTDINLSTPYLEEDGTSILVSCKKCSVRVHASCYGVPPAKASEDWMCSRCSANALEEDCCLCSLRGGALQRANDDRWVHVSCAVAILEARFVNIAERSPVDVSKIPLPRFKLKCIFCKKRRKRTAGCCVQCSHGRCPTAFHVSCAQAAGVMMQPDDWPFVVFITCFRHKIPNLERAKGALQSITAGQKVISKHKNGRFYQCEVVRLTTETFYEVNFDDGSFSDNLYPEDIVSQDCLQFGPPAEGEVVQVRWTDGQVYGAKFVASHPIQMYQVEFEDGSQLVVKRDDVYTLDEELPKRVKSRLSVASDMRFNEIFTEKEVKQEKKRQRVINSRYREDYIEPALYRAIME
% is set by controls: 0 for no effect and ±100 for the full control effect; potency is the fitted concentration of half-maximal effect; tags give direction and shape of the fitted curve.
Note: nearly all actives have a fitted effect of over 50% in size.

SMILES	activity change, negative = inhibition	Potency
CCOC(=O)C1=C(COC(=O)CC(C)c2ccccc2)NC(=O)NC1C (centres undefined)	inactive: -3.23%	
COc1cc(C2C(C(=O)c3ccc(C)o3)=C(O)C(=O)N2Cc2cccnc2)ccc1O (centres undefined)		inconclusive: 89.1 µM [inhibitor, single point]
CCN1CCN(CC(=O)n2c3c(c4ccccc42)CC(C)CC3)CC1 (centres undefined)		inconclusive: 56.2 µM [inhibitor, partial curve]
NC(CSC(c1ccccc1)(c1ccccc1)c1cccc2ccccc12)C(=O)O (centres undefined)		active: 56.2 µM
O=Cc1c(-c2ccccc2)cc2oc3ccccc3cc1-2		inconclusive: 2.24 µM [inhibitor, full curve, poor fit]
Cc1cc(=O)[nH]c(N/N=C/c2ccc(-c3ccc([N+](=O)[O-])cc3)o2)n1	inactive: -16.8%	
O=C(Cc1ccc(NC(=O)C2CCN(C(=O)C3CCC3)CC2)cc1)Nc1cccc(C(=O)N2CCCCC2)c1	inactive: -21.2%	
CN1CCN(c2ccc(NC(=S)NC(=O)c3cccc4c(Cl)cccc34)cc2)CC1		inconclusive: 50.1 µM [inhibitor, partial curve]
CCC(CC)c1nnc(NC(=O)c2cc([N+](=O)[O-])ccc2N2CCCCC2)s1		inconclusive: 11.2 µM [inhibitor, full curve]
O=S(=O)(NCC(c1cccnc1)N1CCN(c2ccccc2)CC1)c1cc(F)ccc1F (centres undefined)		inconclusive: 89.1 µM [inhibitor, partial curve]
CCOc1ccc(CCNC(=O)c2cc3sccc3n2C)cc1OCC		inconclusive: 39.8 µM [inhibitor, partial curve]
CCOC(=O)c1cc(CC)sc1NC(=O)C1CC(=O)NN1Cc1ccccc1 (centres undefined)		inconclusive: 50.1 µM [inhibitor, partial curve]
COc1ccc(C(=O)/C=C2\NCC3c4ccccc4CCN3C2=O)cc1 (centres undefined)	inactive: -13.4% [at 57.1 µM]	
Cc1ccc(NC(=O)CS(=O)CC(=O)Nc2ccc(N3CCOCC3)cc2)cc1Cl (centres undefined)		inconclusive: 39.8 µM [inhibitor, partial curve]
COc1ccc(CC(=O)NNC(=O)c2cc(C)[nH]n2)cc1		inconclusive: 35.5 µM [inhibitor, single point]
O=C(CN1CCN(Cc2ccc(Cl)cc2)CC1)N1CCc2ccccc21	inactive: -13%	
O=c1/c(=C/c2ccc(O)c([N+](=O)[O-])c2)sc2nc3ccccc3n12		active: 44.7 µM
CC(SCc1nc2sc3c(c2c(=O)[nH]1)CCCC3)C(=O)Nc1ccccn1 (centres undefined)	inactive: -13%	
CCOCCCn1c(=N)c(C(N)=S)cc2c(=O)n3cccc(C)c3nc21		active: 79.4 µM
CN(/C(=N/S(=O)(=O)c1cccs1)c1ccccc1)c1ccccc1	inactive: -23.8%	
COc1cccc(Cn2c(NCc3ccc(C)cc3)nc3c2c(=O)n(C)c(=O)n3C)c1	inactive: 2.06%	
COc1cccc(/C=N/NC(=O)C(=O)Nc2ccccc2OC(F)(F)C(F)F)c1O	inactive: -17.5%	
CCN(CC)c1ccc(/C=C(/C#N)C(=O)NC(C)C)o1		inconclusive: 63.1 µM [inhibitor, partial curve]
O=C(CN1CCSCC1)N/N=C/c1cccc(Cl)c1		inconclusive: 17.8 µM [inhibitor, full curve, poor fit]
CC(=O)Nc1ccc(S(=O)(=O)N2CCC(C(=O)NCCC(=O)Nc3nccs3)CC2)cc1	inactive: -2.06%	

SMILES	activity change, negative = inhibition	Potency
CC(OC(=O)CNC(=O)c1sc2ccccc2c1Cl)C(=O)NC1(C#N)CCCCC1 (centres undefined)	inactive: -29.3%	
CN(C)c1ccc(CNC(=O)CCS(=O)(=O)c2ccc3c(c2)n(C)c(=O)c(=O)n3C)cc1		inconclusive: 50.1 µM [inhibitor, partial curve]
Cc1c(OC(C)C(=O)NCCCN2CCCC2=O)ccc2c3c(c(=O)oc12)CCCC3 (centres undefined)	inactive: -8.4%	
CCOC(=O)C(=CNc1cc(C(F)(F)F)ccc1N1CCOCC1)C(=O)OCC	inactive: 6.39%	
O=C(CN1CCc2ccccc2C1)Nc1cccc(S(=O)(=O)N2CCCC2)c1	inconclusive: -100% [inhibitor]	
O=C(NNC(=S)NCCc1ccccc1)c1ccc(Br)s1		inconclusive: 14.1 µM [inhibitor, partial curve, poor fit]
CN1CCN(C(=O)c2ccc3c(=O)n(Cc4ccco4)c(=S)[nH]c3c2)CC1		active: 12.6 µM
COc1ccc([N+](=O)[O-])cc1NC(=O)CCS(=O)(=O)c1ccc(Br)cc1		active: 39.8 µM
COc1cc(C(=O)NC(=S)Nc2cccc3nc(C)ccc23)cc(OC)c1OC		inconclusive: 20 µM [inhibitor, partial curve]
Clc1ccc(CN2CCN(c3ncccn3)CC2)cc1Cl		active: 12.6 µM
CC(C)Oc1ccc(C(=O)O)c(C(=O)O)c1		active: 79.4 µM
COc1cccc(C2c3c(ncn(-c4ccccc4)c3=N)Oc3ccc4ccccc4c32)c1 (centres undefined)		active: 56.2 µM
O=C(COc1ccccc1)NC1C(=O)N2C(C(=O)O)=C(Cl)CSC12 (centres undefined)		active: 79.4 µM
O=C(CN1C(=O)COc2ccc(S(=O)(=O)N3CCCC3)cc21)NCc1ccccn1	inactive: -15.1%	
COc1ccccc1CN1CCCCC1C(=O)O (centres undefined)		active: 35.5 µM
CC1CCN(c2c([N+](=O)[O-])nn(-c3ccc4c(c3)OCCO4)[n+]2[O-])CC1		inconclusive: 31.6 µM [inhibitor, partial curve]
CCCN(CC(=O)Nc1ccccc1C)C(=O)c1ccc(-c2ccc([N+](=O)[O-])cc2)o1		inconclusive: 50.1 µM [inhibitor, partial curve]
Cn1c(N)c(Sc2ccc([N+](=O)[O-])cc2)c(=O)n(C)c1=O		inconclusive: 39.8 µM [inhibitor, partial curve, poor fit]
CN(C)CCCN=Cc1c(O)n(Cc2ccccc2)c(=O)c2ccccc12		inconclusive: 56.2 µM [inhibitor, partial curve]
O=C(CSc1nnc2ccc3ccccc3n12)c1ccc(F)cc1		inconclusive: 70.8 µM [inhibitor, single point]
COC(=O)c1c(C)[nH]c(C)c1-c1ccccc1Cl		inconclusive: 79.4 µM [inhibitor, partial curve]
Cc1ccc(S(=O)(=O)N2CCN(CCC#N)CC2)cc1		active: 3.55 µM
CCCOc1c(Br)cc(C(=O)OCc2cc(=O)n3ccsc3n2)cc1OC	inactive: -6.42%	
CCOC(=O)c1ccc(N2C(=O)c3n[nH]c(-c4ccco4)c3C2c2ccc(O)c(OC)c2)cc1 (centres undefined)		inconclusive: 7.08 µM [inhibitor, full curve, poor fit]
COc1cccc(C(c2c(C)[nH]n(-c3ccccc3)c2=O)c2c(C)[nH]n(-c3ccccc3)c2=O)c1OC		inconclusive: 31.6 µM [inhibitor, partial curve]

SMILES	activity change, negative = inhibition	Potency
Cc1ccc(CNC(=O)c2nn(C)c3c2CS(=O)(=O)c2ccccc2-3)cc1		inconclusive: 25.1 µM [inhibitor, full curve]
O=C(N/N=C/c1cc(Br)ccc1OC(=O)c1ccc(Br)cc1)c1ccncc1		active: 89.1 µM
O=C(Nc1nc2nc(-c3ccccc3)cc(=O)n2[nH]1)c1ccc(Cl)cc1		inconclusive: 39.8 µM [inhibitor, full curve]
CCC(C)OC(=O)/C(C#N)=C\c1ccc(-c2ccccc2Cl)o1 (centres undefined)	inactive: -17.3%	
C=CCn1c(-c2ccc(OC)cc2)nc2ccccc21	inactive: 6.13%	
Cc1cccc(N=C2NC(=O)/C(=C/c3cn(C)c4ccccc34)S2)c1		inconclusive: 39.8 µM [inhibitor, partial curve]
C=CCN1C(=O)/C(=C/c2ccsc2)SC1=S	inactive: -21.8%	
CC(=O)n1c(C=Nc2ccc(Cl)cc2)c(O)c2ccccc21	inactive: 0.704%	
Cc1ccccc1C(=O)Nc1ccc2c(C#N)c3nc4ccccc4nc3n2c1	inactive: -32.4%	
CCCc1ccc(OCC(=O)NNC(=S)NC(=O)c2ccco2)cc1		inconclusive: 79.4 µM [inhibitor, single point]
C(=N\Nc1nc(-c2ccccc2)cs1)/c1cccnc1		inconclusive: 56.2 µM [inhibitor, partial curve]
Cc1nn(Cc2ccccc2)c(C)c1N		inconclusive: 89.1 µM [inhibitor, partial curve]
C[C@@H](C(=O)NCCc1ccccc1F)N1C(=O)N2CCc3c([nH]c4ccccc34)[C@@]2(C)C1=O		inconclusive: 39.8 µM [inhibitor, partial curve]
COc1cccc(C(=O)N2CCN(C3CCCCC3)CC2)c1		active: 11.2 µM
CCn1cnc2cc(NCc3ccc(OC)cc3)ccc21	inactive: -35.1%	
CNC(CC(=O)c1ccc([N+](=O)[O-])cc1)C(Cl)(Cl)Cl (centres undefined)		inconclusive: 25.1 µM [inhibitor, single point]
CCc1ccc2cccc3c2c1N=CN3C		inconclusive: 15.8 µM [inhibitor, full curve, poor fit]
COC(=O)c1scc(-c2ccc(C)cc2)c1S(=O)(=O)N1CCN(c2ccc(OC)cc2)CC1		inconclusive: 11.2 µM [inhibitor, full curve]
O=[N+]([O-])c1ccc(N2CCN(Cc3cccc([N+](=O)[O-])c3)CC2)cc1		inconclusive: 28.2 µM [inhibitor, full curve]
Cc1nc(Cl)cc(N/N=C/c2ccc(O)cc2O)n1		inconclusive: 79.4 µM [inhibitor, partial curve]
Cc1ccccc1NC(=O)c1c(C)nn(-c2ccccc2)c1Cl	inactive: 3.48%	
Oc1cc(NCCc2cccnc2)cc2cccnc12		active: 39.8 µM
Cc1cc(OCCOCCNCc2ccccc2)ccc1C(C)C		active: 20 µM
O=C(NN=C1CCCCCCCCCCC1)c1cccc(S(=O)(=O)N2CCOCC2)c1		inconclusive: 4.47 µM [inhibitor, partial curve, poor fit]
